The full ranking holds about 33,000 sequences; the median of “E-score (-0.5 to 0.5)” is about -0.013, and the highest 2% start at about 0.3. The list shows a part of the results.
Molecular target: T1, Msn1 (UniProt P22148)
T1 sequence: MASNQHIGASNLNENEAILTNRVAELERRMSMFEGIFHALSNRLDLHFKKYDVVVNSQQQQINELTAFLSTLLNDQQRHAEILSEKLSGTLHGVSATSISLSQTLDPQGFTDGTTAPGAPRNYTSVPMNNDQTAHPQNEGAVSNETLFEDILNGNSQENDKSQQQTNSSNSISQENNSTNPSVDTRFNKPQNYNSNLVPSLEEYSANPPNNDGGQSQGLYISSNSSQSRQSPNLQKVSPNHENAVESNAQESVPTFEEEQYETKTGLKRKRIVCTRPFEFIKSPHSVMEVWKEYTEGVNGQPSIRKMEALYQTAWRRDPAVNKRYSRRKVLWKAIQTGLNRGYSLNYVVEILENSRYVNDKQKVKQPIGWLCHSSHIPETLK
Assay: PBM E-score (8-mer binding enrichment) (E-score (-0.5 to 0.5)); higher = stronger / more preferred TF binding; most listed sequences are background and not binding sites
Details: protein concentration: 200 nM; construct: GST-full length
Method in brief: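 Full-length yeast transcription factors or their DNA-binding domains, GST-tagged and expressed with PURExpress, were applied at about 100-200 nM to universal all-10-mer Agilent arrays. These arrays had been made double-stranded by primer extension on fresh or once-stripped slides. Detection used fluorescent anti-GST, normalisation used masliner, and E-scores for ungapped eight-base words pooled with reverse complements came from the Universal PBM Analysis Suite.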

Row | Sequence | PBM E-score
1 | TAACCTTA | -0.126
2 | CTCCTTAA | -0.0988
3 | GGCTGGAC | -0.135
4 | AGTCACTG | -0.134
5 | ATTTAAAC | 0.226
6 | ATATGTCG | 0.379
7 | ACGAACTC | 0.149
8 | CAGGACGG | -0.092
9 | ATCTCAAT | -0.0866
10 | ACAGTGCT | 0.104
11 | ACGCTAAT | -0.223
12 | GGTGTGTA | 0.0653
13 | GCTCAAGA | -0.102
14 | CTGTATTC | 0.16
15 | CCATTGCC | -0.151
16 | CCGAATCC | 0.0949
17 | CCGATGAG | -0.114
18 | CGCTCGCC | -0.0254
19 | CTCCGCGA | 0.0183
20 | AGTCTCCA | -0.063
21 | TAATGGCA | 0.0823
22 | CTCTTGCA | -0.158
23 | ACCTTGAC | -0.0322
24 | ACATCCTC | 0.0488
25 | ATCTCACC | 0.145

Row | Sequence | PBM E-score
26 | GGGTAGAC | -0.151
27 | CGGCCAAG | 0.00784
28 | CTAGTCAA | -0.0557
29 | ACCATGAT | -0.066
30 | TTGGCAAA | 0.182
31 | CCCTTGTC | 0.204
32 | ATAGTGCC | 0.0111
33 | GGAGATAA | 0.158
34 | ACCTTACA | -0.0523
35 | CCGCACGC | -0.199
36 | TAAGGCTA | -0.0383
37 | AAGAGATT | 0.161
38 | CCTTTAAA | -0.0699
39 | ACGTAAAA | 0.0674
40 | GCGACGAA | 0.0334
41 | AAGCAATG | 0.0763
42 | GGTTACTA | -0.00381
43 | AACACATC | -0.0538
44 | AGAGCGCT | -0.219
45 | ATCCGACG | 0.0674
46 | AACTGACG | -0.153
47 | CCGTTCGC | -0.0924
48 | ACACCCTA | -0.0566
49 | AAGCAACC | -0.0237
50 | CCGCAGCC | -0.199

Row | Sequence | PBM E-score
51 | AGTTGAAG | 0.0577
52 | CACATAAC | 0.0195
53 | ATCGGAAT | 0.243
54 | GCCTGTCA | 0.0454
55 | CCTCTGGA | -0.182
56 | ACATAAGG | 0.201
57 | GGACGGTA | 0.0269
58 | AGGACGAT | -0.0393
59 | CGCGCATA | -0.128
60 | AGGAACCG | -0.0657
61 | CACGCGAC | -0.0267
62 | AGATACAG | 0.00761
63 | ACTGGCAG | 0.0189
64 | GATCTCGA | 0.0669
65 | CGACCTTC | 0.0241
66 | AGGCCTTC | 0.0459
67 | ACCTGAGT | -0.0322
68 | GTCGCATA | 0.145
69 | GACATGCA | 0.276
70 | ATGGGTCG | -0.262
71 | CGACAGCA | -0.0706
72 | GCATGTGA | -0.0233
73 | CTTCCAGA | -0.0473
74 | CGGCGTAA | 0.0867
75 | CTCATACA | 0.0476

Row | Sequence | PBM E-score
76 | AATTCCAA | 0.0187
77 | ATCGGCCC | 0.0202
78 | AAACAGAA | 0.0771
79 | CCTCACTA | -0.111
80 | TATTAGGA | 0.287
81 | CCTTTTGC | -0.0414
82 | ACTTTAAG | 0.193
83 | GCATCCGC | -0.0357
84 | ACGCCTGC | -0.142
85 | GCTCCTAA | -0.277
86 | AGGATCCC | -0.104
87 | GGTCAAAC | 0.114
88 | CCCTCGCA | -0.186
89 | GCTCAGAA | -0.143
90 | GTCGGAAC | 0.0293
91 | GCAACTGA | -0.0228
92 | GGGATAAA | 0.149
93 | ACACGCAG | -0.117
94 | AGCGCACG | -0.0829
95 | ACAGTAGG | -0.107
96 | AGACTATC | 0.0636
97 | ATTCAGTG | -0.0153
98 | TAGGGAGA | -0.215
99 | AGGCGTGC | -0.133
100 | CAGCCGAC | -0.0347

Row | Sequence | PBM E-score
101 | ATTAGTTA | 0.189
102 | CACGTCCA | 0.0832
103 | AGACCTGA | 0.0302
104 | TCCTTAGA | 0.117
105 | GTCATCAC | -0.0376
106 | GCCTCTCC | -0.294
107 | AATATTAG | 0.131
108 | ATCGCGCA | -0.0399
109 | GAACACAA | 0.0618
110 | AAGCCATC | -0.026
111 | ATGCTGAA | -0.0631
112 | ATCCCCTG | -0.287
113 | ACTGCTTG | -0.0699
114 | ACTACAGA | 0.149
115 | TGATATAA | -0.139
116 | CCGGCGAG | 0.0887
117 | GAGGGAGC | -0.414
118 | AGGTTTAA | 0.0706
119 | CGTCAGTA | -0.102
120 | AAAACGAG | -0.0903
121 | GAGAAGCC | -0.291
122 | TGCCCGAA | 0.0762
123 | GTATCCGA | 0.11
124 | GAAGTCGC | -0.0763
125 | CCACGGAA | 0.0464

Row | Sequence | PBM E-score
126 | ACGCCTTA | -0.15
127 | GCTGTGCC | 0.00582
128 | CCAATAAG | -0.00719
129 | GAGCTACC | -0.0916
130 | CATTGACC | 0.0616
131 | ACTTCCAT | 0.0709
132 | GGGTCCTA | -0.0969
133 | GGTCGCAC | -0.0298
134 | CGACAACA | 0.204
135 | ATTTTCCA | 0.139
136 | CTTCATAA | 0.0998
137 | AATACCGC | 0.0467
138 | CCACTAGG | -0.279
139 | CATATAAG | 0.13
140 | ACCGTATC | 0.0317
141 | AGGCTAAG | -0.177
142 | CGATTACC | -0.134
143 | CTTCGCTA | -0.0488
144 | AGACAAAT | 0.482
145 | TCAGAGAA | -0.0706
146 | CTTCGGTA | -0.0133
147 | AGTTCGAA | 0.113
148 | CACTGACC | -0.0291
149 | GTAACAAA | 0.125
150 | CTCTCAAC | -0.112

Row | Sequence | PBM E-score
151 | GCCTCTTA | -0.05
152 | ACCTCACG | -0.15
153 | CTAATGCC | -0.0689
154 | GGTATCGA | 0.0605
155 | AGAGGATG | -0.171
156 | AACACAGG | -0.109
157 | CGTGAACC | -0.0965
158 | AAGCGGCG | -0.0525
159 | GAGTGGGC | -0.112
160 | AATTCTGC | 0.0265
161 | CACAACCA | 0.123
162 | TACATCAA | -0.0704
163 | CCGACTCG | 0.0163
164 | AGATTTGG | -0.123
165 | GCCTGTAC | 0.13
166 | CACTTCGC | -0.0275
167 | GGGAACCC | -0.186
168 | CATGAAAA | 0.218
169 | CCGGCTCG | 0.115
170 | CGACGAGA | 0.0183
171 | CGGACACG | 0.338
172 | AACTGTAG | -0.167

Source: the supplement of paper PMC3334620
